From the antibiotic and cytotoxicity screens of Wong et al. (2023) come the findings set out here.

SMILES strings stand for the structures. The list shows a part of the results.

The assay relates to HSkMC (human skeletal muscle cells). Put plainly: cytotoxicity call (relative viability < 0.9). The conditions noted are these: 10 µM.
`COc1ccc2c3c([nH]c2c1)[C@@H](CO)N(C[C@]13CN(Cc2cc(on2)-c2ccccc2)C1)C(=O)Nc1ccc(cc1)F`: the cytotoxicity call is “inactive”.

As for `C[C@H]1CN([C@@H](C)CO)C(=O)c2cc(NC(=O)C3CCCCC3)ccc2O[C@@H]1CN(C)S(=O)(=O)c1cn(C)cn1`, the cytotoxicity call was “inactive”. The result for `C[C@H](CO)N1C[C@H](C)[C@@H](CN(C)Cc2ccc(C(F)(F)F)cc2)Oc2ccc(NC(=O)CCCCCC(=O)Nc3ccccc3N)cc2C1=O` reads “inactive”. For `C[C@@H]1CN([C@@H](C)CO)C(=O)c2cccc(NC(=O)NC3CCCCC3)c2O[C@@H]1CN(C)Cc1ccc(C(F)(F)F)cc1`, the cytotoxicity call was “inactive”.

In the case of `COc1ccc2c3c(n(c2c1)C)[C@H](CO)N(C[C@]13CCN(CC1)S(=O)(=O)c1ccccc1)C(=O)c1cccnc1`, the cytotoxicity call was “inactive”. In the case of `O=c1[nH]c2ccc(F)cc2nc1O`, the cytotoxicity call is “inactive”. As to `Cc1ccc2nc(CN)[nH]c2c1`, the cytotoxicity call is “inactive”.

Take `C[C@H](CO)N1C[C@H](C)[C@H](CN(C)Cc2ccc(-c3ccccc3)cc2)Oc2ccc(NC(=O)CCC(F)(F)F)cc2C1=O`: the cytotoxicity call is “inactive”. The same measure for `C[C@@H]1CN([C@H](C)CO)C(=O)Cc2cc(NS(=O)(=O)c3ccccc3)ccc2O[C@@H]1CN(C)S(=O)(=O)c1ccc(F)cc1`: “inactive”; for `Cc1noc(C)c1NC(=O)N(C)C[C@@H]1OCCCC[C@H](C)Oc2ccc(NS(=O)(=O)c3cccs3)cc2C(=O)N([C@@H](C)CO)C[C@@H]1C`: “inactive”.

Turning to `C[C@@H]1CN([C@H](C)CO)C(=O)c2cc(NC(=O)c3ccncc3)ccc2O[C@@H]1CN(C)Cc1ccc(Oc2ccccc2)cc1`, the cytotoxicity call is “inactive”. The same measure for `CC(C)C#Cc1ccc2c(c1)O[C@H](CN(C)S(=O)(=O)c1cn(C)cn1)[C@H](C)CN([C@@H](C)CO)S2(=O)=O`: “inactive”; for `O=C(C[C@H]1CC[C@@H]2[C@H](COC[C@H](O)CN2C(=O)c2ccccc2)O1)NCCCN1CCOCC1`: “inactive”. The same measure for `COC(=O)CC1C(C)(C)C(OC(C)=O)C2CC3=C4CC(=O)OC(c5ccoc5)C4(C)CCC3C1(C)C2=O` (stereo not given): “inactive”; for `C[C@H](CO)N1C[C@H](C)[C@H](CN(C)C(=O)Nc2ccc(C(F)(F)F)cc2)Oc2c(NC(=O)Nc3ccc(C(F)(F)F)cc3)cccc2C1=O`: “active”; for `C[C@H](CO)N1C[C@H](C)[C@H](CN(C)CC2CCCCC2)Oc2ccc(NC(=O)Cn3cnnn3)cc2C1=O`: “inactive”.

Regarding `C[C@@H]1CCCCO[C@H](CN(C)C(=O)CCC(F)(F)F)[C@H](C)CN([C@H](C)CO)C(=O)c2cc(NS(=O)(=O)c3ccc(Cl)cc3)ccc2O1`, the cytotoxicity call was “inactive”.

For `O=C(C[C@@H]1CC[C@@H]2[C@H](COC[C@@H](O)CN2Cc2ccccc2F)O1)N[C@H]1CCN(Cc2ccccc2)C1`, the cytotoxicity call is “inactive”. As to `C[C@H]1CN([C@@H](C)CO)C(=O)Cc2cc(NC(=O)CCCCCC(=O)Nc3ccccc3N)ccc2O[C@H]1CN(C)S(=O)(=O)c1cn(C)cn1`, the cytotoxicity call was “inactive”. The same measure for `COc1ccc(NC(=O)Nc2ccc3c(c2)C(=O)N([C@H](C)CO)C[C@H](C)[C@@H](CN(C)S(=O)(=O)c2ccc(F)cc2)OCCCC[C@H](C)O3)cc1`: “inactive”; for `C=CC[N+]1(C2CC3C4CCC5CC(O)C(N6CCOCC6)CC5(C)C4CCC3(C)C2OC(C)=O)CCCC1.[Br-]` (stereo not given): “inactive”; for `C[C@H]1CN([C@@H](C)CO)C(=O)c2cc(NC(=O)Nc3ccc(F)cc3)ccc2O[C@H]1CN(C)CC1CCCCC1`: “inactive”. On to `Cc1noc(C)c1S(=O)(=O)Nc1cccc2c1O[C@H](CN(C)Cc1ccccc1)[C@H](C)CN([C@H](C)CO)C2=O`, for which the cytotoxicity call is “inactive”. The same measure for `C[C@H](CO)N1C[C@H](C)[C@@H](CN(C)Cc2ccc(C(F)(F)F)cc2)Oc2ccc(NC(=O)Nc3cccc4ccccc34)cc2CC1=O`: “inactive”; for `Cc1noc(C)c1NC(=O)Nc1ccc2c(c1)C(=O)N([C@H](C)CO)C[C@@H](C)[C@@H](CN(C)C(=O)C1CCCCC1)OCCCC[C@@H](C)O2`: “inactive”.

For `C[C@H](CO)N1C[C@H](C)[C@@H](CN(C)S(=O)(=O)c2ccccc2)Oc2cc(C#Cc3ccncc3)ccc2S1(=O)=O`, the cytotoxicity call is “inactive”.

With `CCN(CC)CCNc1ccc(CO)c2sc3ccccc3c(=O)c12`, the cytotoxicity call is “inactive”. The same measure for `CC(C)(C[C@H]1CN(S(=O)(=O)c2cccc(C(F)(F)F)c2)c2cc(-c3cc(F)cc(OC(F)F)c3)ccc2O1)C(=O)O`: “inactive”; for `COc1ccc(NC(=O)Nc2ccc3c(c2)CC(=O)N([C@@H](C)CO)C[C@H](C)[C@@H](CN(C)Cc2ccc(C(=O)Nc4ccccc4N)cc2)O3)cc1`: “inactive”; for `CC(C)[Si](C#C[Si](C(C)C)(C(C)C)C(C)C)(O[C@H](C)c1cn([C@H](CO)Cc2ccccc2)nn1)C(C)C`: “inactive”. The result for `COc1ccc(C#Cc2cnc3c(c2)C(=O)N([C@H](C)CO)C[C@H](C)[C@H](CN(C)C(=O)Nc2cccc4ccccc24)O3)cc1OC` reads “inactive”; that for `CCCN(C)C[C@H]1OCCCC[C@H](C)Oc2ccc(NC(=O)Nc3ccc4c(c3)OCO4)cc2C(=O)N([C@@H](C)CO)C[C@@H]1C`, “inactive”. The result for `COc1ccc(S(=O)(=O)Nc2ccc3c(c2)C(=O)N([C@@H](C)CO)C[C@@H](C)[C@@H](CN(C)S(=O)(=O)c2cn(C)cn2)O3)cc1` reads “inactive”; that for `C[C@@H](CO)N1C(=O)[C@@H]2[C@H]3C(=O)OCC=C[C@H]3O[C@]23C=CCN(C(C)(C)C)C(=O)[C@@H]13`, “inactive”; that for `C[C@H]1CN([C@@H](C)CO)C(=O)c2cccc(NC(=O)c3ccc(-c4nccs4)cc3)c2O[C@H]1CN(C)C(=O)Nc1cccc2ccccc12`, “inactive”. Consider `O=C(C[C@H]1CC[C@H]2[C@@H](COC[C@@H](O)CN2C(=O)Nc2cccc(Cl)c2)O1)NCCCN1CCOCC1`, for which the cytotoxicity call is “inactive”. The result for `COc1ccc(C2CC(=O)c3c(O)cc(OC4OC(COC5OC(C)C(O)C(O)C5O)C(O)C(O)C4O)cc3O2)cc1O` (stereo not given) reads “inactive”; that for `C[C@H]1CN([C@@H](C)CO)C(=O)c2cc(C#CCc3ccccc3)cnc2O[C@H]1CN(C)CC1CCOCC1`, “inactive”; that for `C[C@H]1CN([C@@H](C)CO)C(=O)Cc2cc(NC(=O)C3CCCCC3)ccc2O[C@@H]1CN(C)Cc1ccc(C(F)(F)F)cc1`, “inactive”.

Take `CCS(=O)(=O)Nc1ccc2c(c1)C(=O)N(C)C[C@H](OC)[C@@H](C)CN(CCC(F)(F)F)[C@H](C)CO2`: the cytotoxicity call is “inactive”.
